# Reference: ChEMBL document CHEMBL4888484, “Replenishing the malaria drug discovery pipeline: Screening and hit evaluation of the MMV Hit Generation Library 1 (HGL1) against asexual blood stage Plasmodium falciparum ,using a nano luciferase reporter read-out” (2022)
# About 540 (0.36%) of roughly 150,000 compounds showed an effect of 50% or more. The list shows a part of the results.
# Tested on: Plasmodium falciparum
# Experiment: Primary screen in NF54 nanoGlo assay, in single point, at 2uM, 72h; a lower Z score goes with more inhibition
# Type: functional, Erythrocyte
# Settings: timepoint 72 hour
Compound,% Inhibition,Z score
O=C(NC1CC1c1ccc(F)cc1)c1cc(C2CC2)[nH]n1 (stereo unspecified),4%,-0.47
Cc1ccc(C)c(C(=O)N(C)CC(=O)NC(C)C)c1,-9%,1.04
CCn1ccc(C(=O)Nc2sc3c(c2C#N)CCC3)n1,-22%,2.77
Cc1nc(CCN(C)Cc2cccnc2N)no1,-13%,2.53
CCc1nc(-c2csc(S(=O)(=O)N3CCC4(CC3)OCCO4)c2)no1,0%,-0.05
O[C@]1(CN2CCCC2)COCCN(c2ncnc3c2CCC3)C1,-18%,2.07
Cc1ccc(NC(=O)c2cnn(-c3cccc(C)c3)c2C2CCN(C(=O)OC(C)(C)C)CC2)cc1,-5%,0.71
Cc1c(Cl)cncc1NC(=O)N1CC(=O)NC(=O)C12CCCCC2,-4%,0.59
O=C(c1conc1C1CC1)N1CCN(CC=Cc2ccccc2)CC1,6%,-0.79
Cc1cccc(C2CC(N[C@@H](C)C(=O)NCc3ccco3)C2)c1 (stereo partly specified),34%,-2.88
N#Cc1nccnc1O[C@H]1CCN(C(=O)c2cc(C3CC3)on2)C1,-1%,0.06
Cc1ccc(C(=O)Nc2nc(-c3ccc(C)s3)ns2)cc1,-9%,1.4
C[C@H]1CN(C(=O)c2ccccc2OC2CC2)CCN1C(=O)c1cscn1,3%,-0.4
CC(C#N)NC(=O)C(c1ccccc1)C1CC1 (stereo unspecified),-12%,1.91
O=C(C1CCCC1)N1CCN(Cc2ccncc2)[C@@H]2CS(=O)(=O)C[C@@H]21,4%,-0.59
CN(C)C(=O)c1nc2ccc(Cl)cn2c1CN1CCOCC1,1%,-0.07
CC(C)(C)c1ccc(C(=O)C(=O)N2CCC[C@H]2c2ccc[nH]2)cc1,-12%,1.71
Cc1coc(-c2cc(NC(=O)c3cccc(N(C)C)c3)ccc2C)n1,6%,-0.61
Cc1ccc(C(=O)NS(=O)(=O)c2cnc3n2CCC3)nc1C,1%,-0.17
CN(Cc1ccccc1)C1(CNC2CCOCC2)Cc2ccccc2C1,-6%,0.75
CCCCN(CC)c1ncc(C(=O)Nc2ccc(OCC)cc2)c(N)n1,40%,-4.49
Cc1cc(-c2c(C)sc(C)c2S(=O)(=O)Nc2cccc3ccccc23)on1,4%,-0.7
COC(=O)[C@H](CN)Cc1cc(F)c(F)c(F)c1,12%,-1.36
CCOc1ccc2c(n1)CCN(C(=O)c1ccc(OC)c(OC)c1)C2,-9%,1.65
CCCN(CCC)C(=O)CCC(=O)Nc1cccnc1C#N,-2%,0.39
COc1ccc(CC(=O)N2[C@@H]3CC[C@H]2CC(NC(=O)c2cnc(C)cn2)C3)cc1Cl (stereo partly specified),-10%,1.96
C=CCNCc1cc(Br)ccc1F,-9%,1.17

Compound,% Inhibition,Z score
O=C(N1CCCC1)N1CCN(c2ccccc2)CC1,-3%,0.63
C=CCN(CC(=O)N(Cc1ccc(F)cc1)Cc1ccc(C)o1)C(=O)C1CCCC1,-7%,1.08
CCN1C(=O)C2(CCN(C(=O)COc3cccc(C)c3)CC2)C[C@H]1C(=O)NCCCOC,3%,-0.55
CC(C)=CCNc1ccccc1C(=O)NCCC(N)=O,-6%,1
O=S(=O)(c1ccccc1)N1C[C@H](NCCc2cccc(F)c2)[C@@H](O)C1,-5%,0.8
COc1ccc(Cn2c(C)c(CNC3CCCCCCC3)c(C(=O)O)c2C)cc1,-12%,1.42
CN1CCN(Cc2cccc(OCCCCN3CCOCC3)c2)CC1(C)C,0%,-0.02
CC(C)(C(=O)Nc1ccc2c(c1)OCO2)N(Cc1ccc(F)cc1)C(=O)Cn1nnc2ccccc21,10%,-1.2
CCCc1nnc(N2CCC3(CCCC3)C2)s1,-2%,0.32
CC[C@@]1(O)COC2(CN(C(=O)CCc3conc3-c3ccccc3)C2)C1,-9%,1.4
COc1ccccc1NC(=O)Nc1cc(C)cc2c(-c3ccccc3)c(C(=O)N3CCOCC3)[nH]c12,29%,-3.27
Cc1cccnc1C(=O)N1CC2(C[C@@H](c3nc(-c4ccncc4)no3)N(C)C2)C1,-11%,1.32
Cc1c(N2CCC(C(=O)N3CCC(N4CCCCC4)CC3)CC2)c(=O)n(C)c(=O)n1-c1ccccc1,5%,-0.9
Cc1c(C(=O)N2C[C@H]3C[C@H](c4ccccc4)CC[C@@]3(C(=O)O)C2)ccn1C,-2%,0.27
CN(Cc1n[nH]c2c1CCC2)Cc1cccc2nonc12,-2%,0.16
NCCCC(=O)N1CCOc2c(O)cc(-c3nc4ccccc4s3)cc2C1,-4%,0.75
CN(Cc1nccn1C)C(=O)c1cccc(-c2cc(N3CCCC3)cnn2)c1,-9%,1.41
CCCN1CCn2nc(-c3nc4cc(OC)ccc4[nH]3)cc2C1,-3%,0.27
COC1CCCN(C(=O)C2CC(Cc3cccc(Cl)c3)=NO2)C1 (stereo unspecified),7%,-0.89
Cc1c(C(C)C)c(=O)n(-c2ccc(S(=O)(=O)N3CCCCC3)cc2)n1C,-5%,0.62
O=C(CN1c2ccccc2N(CC(=O)N2CCCCCCC2)S1(=O)=O)N1CCCCCCC1,-11%,0.96
O=C(O)C1CCN(c2cc(-n3ccnc3)ncn2)CC1,-1%,0.26
CCc1cc(N2C[C@@H]3NC(=O)CN(C)Cc4ccc(OC)c(c4)Oc4cccc(c4)CO[C@H]3C2)nc(N(C)C)n1,46%,-10.96
O=C(c1cccc(-c2noc(C3CCC3)n2)c1)N1CCN(c2ccccc2)CC1,-3%,0.4
O=C(Cn1cnc2ccccc21)N1CCC(Oc2ccncc2Cl)CC1,-3%,0.65
Cc1cc(O[C@H]2CCCN(C(=O)CN3CCOC3=O)C2)nc(C)n1,8%,-1.16
